Assay results published in patent publication US20240092866A1 (AVIRMAX BIOPHARMA, published 2024).

T1: human VEGF-A165 (expressed in HEK293 cells, GeneScript Cat #Z03073) (human, UniProt P15692-4 27-191)
T1 construct: also called rhVEGF-A165; rhVEGF
T1 sequence (looked up): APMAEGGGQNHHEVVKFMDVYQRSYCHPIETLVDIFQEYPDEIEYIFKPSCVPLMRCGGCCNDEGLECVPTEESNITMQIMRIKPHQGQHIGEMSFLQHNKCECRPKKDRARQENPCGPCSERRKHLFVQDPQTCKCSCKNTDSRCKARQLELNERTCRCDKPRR

B1: Aflibercept, commercial product (Eylea, Regeneron Pharmaceuticals, Tarrytown, NY) (Fc fusion)
chain: DTGRPFVEMYSEIPEIIHMTEGRELVIPCRVTSPNITVTLKKFPLDTLIPDGKRIIWDSRKGFIISNATYKEIGLLTCEATVNGHLYKTNYLTHRQTNTIIDVVLSPSHGIELSVGEKLVLNCTARTELNVGIDFNWEYPSSKHQHKKLVNRDLKTQSGSEMKKFLSTLTIDGVTRSDQGLYTCAASSGLMTKKNSTFVRVHEK[… human IgG1 Fc …]
notes: Bought commercial product; MW 115 kDa was used for molarity; also called commercial aflibercept; commercial VEGF-Trap
B2: AAV2.N54-AMI120 derived VEGF-Trap (AVMX-110 derived VEGF-Trap), expressed in HEK293 cells and purified by protein A affinity chromatography (Fc fusion)
chain: B1 chain
notes: no cleavage site is stated; also called AVMX-110 VEGF-Trap; AAV2.N54.120 derived VEGF-Trap

What was measured:
[1] = biological target: T1, human VEGF-A165 (expressed in HEK293 …); test: ELISA, plate coated with rhVEGF-A165, detection with anti-human IgG1 Fc
Protocol: The assay for determining binding affinity was performed. Briefly, purified from AAV2.N54-VEGF-Trap expressed VEGF-Trap was assayed for its binding affinity to rhVEGF. A 96-well plate was coated with rhVEGF-A₁₆₅ at 0.1 μg/mL at 2-8° C. overnight. The plate was washed 3×300 μL with washing buffer (0.05% Tween−20 in PBS, pH 7.3±0.1) and blocked with blocking buffer containing 1% casein for 120 min. […] Diluted (1:40,000) biotinylated rabbit anti-human IgG1 Fc antibody solution was added at 100 μL/well after 3×300 μL/well of washing buffer. Further incubation at 37±1° C. for 60 minutes and washing with 3×300 μL/well of washing buffer were performed. Finally, to each well, streptavidin-HRP, 1:40,000, was added at 100 μL/well and incubated at 37±1° C. for 60 minutes. The substrate TMB solution after 3×300 μL/well washing, was added and incubated at 37±1° C. for 15 minutes followed by stopping with stop solution 100 μL/well. The plate was read at 600 nm wavelength in a microplate reader (Molecular Device, Sunnyvale, CA).

[2] = biological target: T1, human VEGF-A165 (expressed in HEK293 …); test: Biacore SPR, aflibercept captured on protein A chip, VEGF-A165 as analyte
Protocol: (§1) Interaction between AVMX-110 derived VEGF-Trap and human VEGF-A₁₆₅ was analyzed by the surface plasmon resonance (SPR) method.
(§2) VEGF-Trap protein was expressed by HEK293 cell transfected with expression vector, AAV2.N54-AMI120, and purified by a protein A affinity column chromatography. The eluate was neutralized and concentrated to the concentration of 4.31 mg/ml. Aflibercept was commercial product, which was diluted into 4 mg/ml. VEGF-A₁₆₅ was obtained from Genescript (GeneScript, Cat #Z03073, Nanjing China), which was reconstituted into 1 mg/ml. Working solution of each stock protein was prepared at 200 nM prior to experimentation. Molarity concentrations were calculated using MW: 115 kDa for VEGF-Trap and aflibercept, 45 kDa for VEGF-A₁₆₅. […] Binding kinetic simulation was analyzed with Biacore evaluation software.

[3] = biological target: T1, human VEGF-A165 (expressed in HEK293 …); test: Biacore SPR, VEGF-Trap captured on protein A chip, VEGF-A165 as analyte
Protocol: as §1, §2

Binder	Kd [1]	Ka [2] [M⁻¹]	Kd [2] [nM]	koff [2] [s⁻¹]	kon [2] [M⁻¹ s⁻¹]	Ka [3] [M⁻¹]	Kd [3] [nM]	kon [3] [M⁻¹ s⁻¹]
B1	0.00686 µg/mL and 0.06 nM	1.83e+10	0.0545	0.000188	3.45e+06	–	–	–
B2	0.00863 µg/mL and 0.075 nM	–	–	–	–	3e+10	0.033	6.07e+06

Several values for one entry are separate records, joined by “and”; a condition that tells them apart may be missing. Identical values can stand only once.
